Measurements as given in patent US9765075B2, “Substituted bridged urea analogs as sirtuin modulators” (GLAXOSMITHKLINE LLC, priority 2013, dated 2017).
Substitutions are numbered along the chain they refer to. At least one compound was matched to its structure with a doubt left.

Tests used:
Test in all cases: SIRT1 activation dose-response, OAcADPr assay with Ac-p53(W5) substrate
Type in all cases: biochemical
full-length hSIRT1 E230K = target: T1, full-length hSIRT1 E230K (Homo sapiens, UniProt Q96EB6, E230K)
T1 construct: His6 (C); made in house
T1 sequence (Q96EB6 1-747 E230K): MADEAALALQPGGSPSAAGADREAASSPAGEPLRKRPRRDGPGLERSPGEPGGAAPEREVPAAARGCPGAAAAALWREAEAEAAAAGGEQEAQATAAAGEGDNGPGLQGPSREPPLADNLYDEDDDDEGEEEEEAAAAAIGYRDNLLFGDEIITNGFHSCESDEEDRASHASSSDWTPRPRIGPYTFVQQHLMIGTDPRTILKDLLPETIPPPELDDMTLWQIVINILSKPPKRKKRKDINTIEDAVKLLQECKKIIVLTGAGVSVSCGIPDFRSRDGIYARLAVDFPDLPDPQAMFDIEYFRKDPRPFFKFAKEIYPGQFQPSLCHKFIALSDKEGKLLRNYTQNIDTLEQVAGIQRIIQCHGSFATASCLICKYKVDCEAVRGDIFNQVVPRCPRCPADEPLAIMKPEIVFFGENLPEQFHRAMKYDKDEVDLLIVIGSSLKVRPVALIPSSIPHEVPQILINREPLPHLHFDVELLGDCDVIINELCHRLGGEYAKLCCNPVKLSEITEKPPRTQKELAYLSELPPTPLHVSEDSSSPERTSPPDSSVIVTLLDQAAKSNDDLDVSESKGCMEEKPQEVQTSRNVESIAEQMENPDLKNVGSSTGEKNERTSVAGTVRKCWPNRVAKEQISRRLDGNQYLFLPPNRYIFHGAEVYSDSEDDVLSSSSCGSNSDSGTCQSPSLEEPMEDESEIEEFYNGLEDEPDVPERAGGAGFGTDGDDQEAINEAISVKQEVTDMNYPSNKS

full-length hSIRT1 E230A = target: T2, full-length hSIRT1 E230A (Homo sapiens, UniProt Q96EB6, E230A)
T2 construct: His6 (C); made in house
T2 sequence (Q96EB6 1-747 E230A): T1 sequence (Q96EB6 1-747 E230K) with K230A

full-length hSIRT1 T219A = target: T3, full-length hSIRT1 T219A (Homo sapiens, UniProt Q96EB6, T219A)
T3 construct: The following point mutants of full-length hSIRT1 were generated; His6 (C); made in house
T3 sequence (Q96EB6 1-747 T219A): T1 sequence (Q96EB6 1-747 E230K) with T219A, K230E

SMILES: O=C(Nc1ccccn1)N1c2nc(-c3cccc(C(F)(F)F)c3)ccc2N2CC[C@H]1C2 [Example 7]
- RVmax (maximum activation, relative velocity at infinite activator concentration) (full-length hSIRT1 E230K): 1.71
- RVmax (maximum activation, relative velocity at infinite activator concentration) (full-length hSIRT1 E230A): 2.72
- RVmax (maximum activation, relative velocity at infinite activator concentration) (full-length hSIRT1 T219A): 3.25

SMILES: Cc1cnc2c(NC(=O)N3c4nc(-c5cccc(C(F)(F)F)c5)ccc4N4CC[C@H]3C4)cccc2n1 [Example 8]
- RVmax (maximum activation, relative velocity at infinite activator concentration) (full-length hSIRT1 E230K): 1.99
- RVmax (maximum activation, relative velocity at infinite activator concentration) (full-length hSIRT1 E230A): 3.21
- RVmax (maximum activation, relative velocity at infinite activator concentration) (full-length hSIRT1 T219A): 4.22
